The text below walks through data of the supplement of paper PMC11125491.

To fix the notation:
B1: UniProt A0EPZ9; numbered along this chain (parent)
chain: MDWQKSLTLIVALTLSRGIGLKNDLPWKLKSDMMFFSRVTSGLLVTRSTGQMNVVLMGRKTWESLPAHSRPLKNRINVVISRQEVLDLGGGAYHARSLDDALALLSQIYDSTSKIQLNRVFVIGGGELCKAAMEHSRLNRIIATVIHNEVDCDVFFPIDFRSSQSCLPWRKQDHSVLEAWVGSKVPQGKINENGFIYEFEMWIRDI

± gives the standard deviation of the averaged measurements. Growth of baker's yeast expressing single-residue variants of Pneumocystis jirovecii dihydrofolate reductase in 8.8 or 44 µM methotrexate (about 75% and 90% inhibition of the wild type). Selection coefficient per generation; 0 = like wild type, above 0 = less sensitive, below 0 = more sensitive or loss of function. No active / inactive call per row; the paper calls resistant above 0.220 (8.8 µM) or 0.243 (44 µM) together with a significance test. At 44 µM about 15% of codons end with one read or none, so the lowest values are floors (replicate rank correlation 0.74; 0.94 at 8.8 µM).

The variants in this series derive from B1. Briefly: selection coefficient against synonymous wild-type codons (log2 per generation); higher = faster growth than wild type. The following applies: with Saccharomyces cerevisiae carrying the variant on a plasmid. The procedure:
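Pooled growth of yeast carrying single-residue variants of P. jirovecii dihydrofolate reductase (own DFR1 gene intact), two passages at 30 °C, three cultures, sequenced before and after. Codons with under 15 starting reads are left out; codons of one change are averaged.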

Regarding MDWQKSLTLIVALTLSRGIGLKNDLPWKLKSDMMFFSRVTSGLLVTRSTGQMNVVLVGRKTWESLPAHSRPLKNRINVVISRQEVLDLGGGAYHARSLDDALALLSQIYDSTSKIQLNRVFVIGGGELCKAAMEHSRLNRIIATVIHNEVDCDVFFPIDFRSSQSCLPWRKQDHSVLEAWVGSKVPQGKINENGFIYEFEMWIRDI [M57V], the “selection coefficient against synonymous wild-type codons (log2)” value (“selection coefficient … (log2)” below) is, setting by setting: (methotrexate 8.8 µM) -0.481 ± 0.2; (methotrexate 44 µM) -0.254 ± 0.1.

MDWQKSLTLIVALTVSRGIGLKNDLPWKLKSDMMFFSRVTSGLLVTRSTGQMNVVLMGRKTWESLPAHSRPLKNRINVVISRQEVLDLGGGAYHARSLDDALALLSQIYDSTSKIQLNRVFVIGGGELCKAAMEHSRLNRIIATVIHNEVDCDVFFPIDFRSSQSCLPWRKQDHSVLEAWVGSKVPQGKINENGFIYEFEMWIRDI [L15V]: the “selection coefficient … (log2)” value (methotrexate 8.8 µM) is 0.0754 ± 0.024 and the “selection coefficient … (log2)” value (methotrexate 44 µM) is 0.0704 ± 0.083.

With MDWQKSLTLIVALTLSRGIGLKNDLPWKLKSDMMFFSRVTSGLLVTRSTGQMNVVLMGRKTWESLPAHSRPLKNRINVVISRQEVLDLGGGAYHARSLDDALALLSQIYDSTSKIQLNRVFVIGGGELCKGAMEHSRLNRIIATVIHNEVDCDVFFPIDFRSSQSCLPWRKQDHSVLEAWVGSKVPQGKINENGFIYEFEMWIRDI [A131G], the “selection coefficient … (log2)” value is -0.519 ± 0.03 (methotrexate 8.8 µM) and -0.345 ± 0.12 (methotrexate 44 µM).

As to MDWQKSLTLIVALTLSRGIGLKNDLPWKLKSDMMFFSRVTSGLLVTRSTGQMNVVLMGRKTWESLPAHSRPLKNRINVVISRQEVLDLGGGAYHARSLDDALALLSQIYDSTSKIQLNRVFVIGGGELCKAAMEHSRLNRIIATVQHNEVDCDVFFPIDFRSSQSCLPWRKQDHSVLEAWVGSKVPQGKINENGFIYEFEMWIRDI [I146Q], the “selection coefficient … (log2)” value by setting is: (methotrexate 8.8 µM) 0.585 ± 0.065; (methotrexate 44 µM) 0.823 ± 0.059.

For MDWQKSLTLIVALTLSRGIGLKNDLPWKLKSDMMFPSRVTSGLLVTRSTGQMNVVLMGRKTWESLPAHSRPLKNRINVVISRQEVLDLGGGAYHARSLDDALALLSQIYDSTSKIQLNRVFVIGGGELCKAAMEHSRLNRIIATVIHNEVDCDVFFPIDFRSSQSCLPWRKQDHSVLEAWVGSKVPQGKINENGFIYEFEMWIRDI [F36P], the “selection coefficient … (log2)” value is, setting by setting: (methotrexate 8.8 µM) -0.325 ± 0.12; (methotrexate 44 µM) -0.113 ± 0.14.

As for MDWQKSLTLIVALTLSRGIGLKNDLPWTLKSDMMFFSRVTSGLLVTRSTGQMNVVLMGRKTWESLPAHSRPLKNRINVVISRQEVLDLGGGAYHARSLDDALALLSQIYDSTSKIQLNRVFVIGGGELCKAAMEHSRLNRIIATVIHNEVDCDVFFPIDFRSSQSCLPWRKQDHSVLEAWVGSKVPQGKINENGFIYEFEMWIRDI [K28T], the “selection coefficient … (log2)” value (methotrexate 8.8 µM) came to 0.0967 ± 0.022 and the “selection coefficient … (log2)” value (methotrexate 44 µM) was -0.0484 ± 0.21.

MDWQKSLTLIVALTLSRGIGLKNDLPWKLKSDMMFFSRVTSGLLVTRSTGQMNVVLMGRKTWESLPAHSRPLKNRINVVISRQEVLDLGGGAYHARSLDDALALLSQIYDSTSKIQLNRVFVIGGGELCKAAMEHSRLNRIIATVIHNEVDCDVFFPIDFRSSQSCLPWRLQDHSVLEAWVGSKVPQGKINENGFIYEFEMWIRDI [K171L]: the “selection coefficient … (log2)” value is -0.175 ± 0.086 (methotrexate 8.8 µM) and -0.151 ± 0.11 (methotrexate 44 µM).

For the variant MDWQKSLTLIVALTLSRGIGLKNDLPWKLKSDMMFFSRVTSGLLVTRSTGQMNVVLMGRKTWESLPAHSRPLKNRINVVISRQEVLDLGGGAYHARSLDDALALLSQIYDSTSKIQLNRVFVIGGGELCKAAMEHSRLNRIIATVIHNEVDCDVFFQIDFRSSQSCLPWRKQDHSVLEAWVGSKVPQGKINENGFIYEFEMWIRDI [P157Q], the “selection coefficient … (log2)” value by setting is: (methotrexate 8.8 µM) -0.237 ± 0.056; (methotrexate 44 µM) -0.275 ± 0.071.

As to MDWQKSLTLIVALTLSRGIGLKNDLPWKLKSDMMFFSRVTSGLLVTRSTGQMNVVLMGRKTWESLPAHSRPLKNRINVVISRQEVLDLGGGAYHARSLDDALALLSQIYDSTSKIQLNRVFVIGGGHLCKAAMEHSRLNRIIATVIHNEVDCDVFFPIDFRSSQSCLPWRKQDHSVLEAWVGSKVPQGKINENGFIYEFEMWIRDI [E127H], the “selection coefficient … (log2)” value was -0.162 ± 0.053 (methotrexate 8.8 µM) and 0.156 ± 0.12 (methotrexate 44 µM).

With MDWQKSLTLIVALTLSRGIGLKNDLPWKLKSDMMFFSRVTSGLLVTRSTGQMNVVLMGRKTWESLPAHSRPLKNRINVVISRQEVLDLGGGAYHARSLDDALALLSQIYDSTSKIQLNRVFVIGGGELCKAAMEHSRLNRIIATVIHNEVDCDVFFPIDFRSSQSCLPWRKQDHSVLEAWVGSKVPWGKINENGFIYEFEMWIRDI [Q187W], the “selection coefficient … (log2)” value runs as follows: (methotrexate 8.8 µM) -0.313 ± 0.028; (methotrexate 44 µM) -0.0628 ± 0.15.

For MDWQKSLTLIVALTLSRGIGLKNDLPWKLKSDMMFFSRVTSGLLVTRSTGQMNVVLMGRKTWESLPAHSRPLKNRINVVISRQEVLDLGGGAYHARSLDDALALLSQIYDSTSKIQLNRVFVIGGGELCKAAMEHSRLNRIIATVIHNEVDCDVFFPIDFRSSQSCLPWRKQVHSVLEAWVGSKVPQGKINENGFIYEFEMWIRDI [D173V], the “selection coefficient … (log2)” value was -0.215 ± 0.058 (methotrexate 8.8 µM) and -0.17 ± 0.12 (methotrexate 44 µM).

For MDWQKSLTLIVALTLSRGIGLKNDLPWKLKSDMMFFSRVTSGLLVTRSTGQMNVVLMGRKTWESLPAHSRPLKNRINVVISRQEVLDLGGGAYHARSLDDALALLSQIYDSTSKIQLNRVFVIGGGELCKAAMEHSRLNRIIATVIHNEVDCDVFFPIDFRSSQSCLPWRKQDHSVLEAWVGSKVPQGKINENGFIYEFKMWIRDI [E200K], the “selection coefficient … (log2)” value was 0.319 ± 0.045 (methotrexate 8.8 µM) and 0.323 ± 0.061 (methotrexate 44 µM).

MDWQKSLTLIVALTLSRGIGLKNDLPWKLKSDMMFFSRVTSGLLVTRSTGQMNVVLMGRKTWESLPAHSRPLKNRINVVISRQEVLDLGGGAYHARSLDDALALLSQIYDSTSKIQLNRVFVIGGGELCKAAMEHSRLNRIIAWVIHNEVDCDVFFPIDFRSSQSCLPWRKQDHSVLEAWVGSKVPQGKINENGFIYEFEMWIRDI [T144W]: the “selection coefficient … (log2)” value runs as follows: (methotrexate 8.8 µM) -0.572 ± 0.079; (methotrexate 44 µM) -0.364 ± 0.038.

With MDWQKSLTLIVALTLSRGIGLKNDLPWKLKSDMMFFSRVTSGLLVTRSTGQMNVVLMGRKTWESLPAHSRPLKNRINVVISRQEVLDLGGGAYHARSLDDALALLSQIYDSTSKIQLNRVFVIGGGELCKAAMEHSRLNRIIATVIHNEVKCDVFFPIDFRSSQSCLPWRKQDHSVLEAWVGSKVPQGKINENGFIYEFEMWIRDI [D151K], the “selection coefficient … (log2)” value was -0.147 ± 0.078 (methotrexate 8.8 µM) and -0.212 ± 0.14 (methotrexate 44 µM).

For the variant MDWQKSLTLIVALTLSRGIGLKNDLPWKLKSDMMFFSRVTSGLLVTRSTGQMNVVLMGRKTWESLPAHSRPLKNRINVVASRQEVLDLGGGAYHARSLDDALALLSQIYDSTSKIQLNRVFVIGGGELCKAAMEHSRLNRIIATVIHNEVDCDVFFPIDFRSSQSCLPWRKQDHSVLEAWVGSKVPQGKINENGFIYEFEMWIRDI [I80A], the “selection coefficient … (log2)” value is -0.636 ± 0.1 (methotrexate 8.8 µM) and -0.133 ± 0.092 (methotrexate 44 µM).
